# Laboratory results as given in PubChem BioAssay (Tox21).
# “And” between values parts separate entries of the source, which are not always exact repeats. Equal values may be shown once. The shares of active, inactive and inconclusive entries below differ from those in the screen. Potencies of inconclusive entries are left out as doubtful fits. The source made the active and inactive calls. Calls come from the whole dose curve; as a rule, active = well fitted curve in the direction sought with a large enough effect in the repeat runs; inconclusive = weak or mixed curves; inactive = no such curve, though single readings can be large; an effect the other way counts as inactive or inconclusive.
# What was measured:
# [1] = qHTS RealTime-Glo MT Cell Viability Assay in HepG2 cells - 8 hour (AID 1224873); settings: RealTime-Glo luminescence; series mostly up to 76.8 µM; note: nearly all actives have a fitted effect of over 55% in size
# How it was run: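 Real-time viability: cells seeded at 600 per well together with NanoLuc and cell-permeant prosubstrate, compounds added after 5 h incubation. Luminescence tracked at 0, 8, 16, 24, 32 and 40 h of exposure.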
# [2] = qHTS RealTime-Glo MT Cell Viability Assay in HEK293 cells - 16 hour (AID 1224872); settings: RealTime-Glo luminescence; series mostly up to 76.8 µM; note: nearly all actives have a fitted effect of over 50% in size
# How it was run: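 Luminescence generated by NanoLuc from substrate produced by living HEK293 cells served as the viability signal. Each value reflects the reading at its stated time point during continuous 40 h compound exposure at 37 C.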
# [3] = A CellTox Green Cytotoxicity Assay to monitor cytotoxicity in HEK293 cells - 24 hour (AID 1224875); settings: CellTox Green fluorescence; series mostly up to 76.8 µM; note: nearly all actives have a fitted effect of over 45% in size
# How it was run: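 Fluorescence from a DNA-binding dye excluded by viable cells was measured repeatedly in the same HEK293 wells (600 cells/well) during continuous compound exposure at 37 C. Each assay gives one read point: 0, 8, 16, 24, 32 or 40 h.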
# [4] = qHTS RealTime-Glo MT Cell Viability Assay in HEK293 cells - 40 hour (AID 1224874); settings: RealTime-Glo luminescence; max response: hits give low values; note: nearly all actives have a fitted effect of over 50% in size; for max response: % is set by controls: 0 for no effect and ±100 for the full control effect
# How it was run: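 Luminescence, which tracks viable cell number through reduction of the prosubstrate to a NanoLuc substrate, was read over continuous 37 C culture. Cells (600/well) were premixed with reagent and rested 5 h before 23 nL of compound in DMSO was pinned.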
# Potency is the fitted concentration of half-maximal effect; tags give direction and shape of the fitted curve.
structure (smiles),measurement,setting,value
O=NN1CCCCCCC1,Potency,[1],inactive
CO/C=C(/C(=O)OC)c1ccccc1COc1cccc(C(F)(F)F)n1,Potency,[2],"inconclusive [cytotoxic, single point]"
same,Potency,[1],"inconclusive [falling, partial curve, poor fit]"
S=C=NCc1ccccc1,Potency,[2],active: 24.8 µM
same,Potency,[3],"inconclusive [activator, partial curve]"
C=CCN=C=S,Potency,[1],inactive
CN(N=O)c1ccccc1,Potency,[1],inactive
CCS(=O)(=O)C(C)(C)S(=O)(=O)CC,Potency,[1],inactive
CCC(Cl)CCl (stereo unspecified),Potency,[1],inactive
CCCCN(CCCC)N=O,Potency,[1],inactive
CCCC(C)(COC(N)=O)COC(=O)NC(C)C (stereo unspecified),Potency,[2],inactive
same,Potency,[1],inactive
CC(C)N1C(=O)c2ccccc2NS1(=O)=O,Potency,[1],inactive
Cc1cc(C)nc(Nc2ccccc2)n1,Potency,[1],inactive
BrC(Br)C(Br)(Br)Br,Potency,[2],active: 43.9 µM
same,Potency,[4],active: 27.7 µM
same,Potency,[3],"inconclusive [activator, single point]"
COc1ccc(C(=O)N2CCCC2=O)cc1,Potency,[1],inactive
Cc1cccc(N)c1,Potency,[2],inactive
same,Potency,[4],"inconclusive [cytotoxic, partial curve, poor fit]"
O=C(O)COc1ccc(Cl)cc1Cl,Potency,[2],"inconclusive [rising, partial curve, poor fit]"
same,Potency,[3],"inconclusive [activator, single point]"
CCCSP(=O)(OCC)SCCC,Potency,[2],inactive
O=C(CBr)OCc1ccccc1,Potency,[2],"inconclusive [rising, partial curve]"
same,Potency,[4],"inconclusive [rising, partial curve, poor fit]"
COCCOCCO,Potency,[2],inactive
same,Potency,[4],"inconclusive [rising, partial curve, poor fit]"
ClCc1ccccc1,Potency,[1],inactive
CC(Cl)Cl,Potency,[1],inactive
O=c1n(Cl)c(=O)n(Cl)c(=O)n1Cl,Potency,[2],inactive
same,Potency,[1],inactive
CC(C)C1(C)N=C(c2nc3ccccc3cc2C(=O)O)NC1=O (stereo unspecified),Potency,[1],inactive
CCCCOC(=O)c1ccccc1C(=O)OCCCC,Potency,[2],inactive
same,max response,[4],inactive: -5.69% and inactive: -1.79%
Cc1c([N+](=O)[O-])c(C)c([N+](=O)[O-])c(C(C)(C)C)c1[N+](=O)[O-],Potency,[1],inactive
c1ccc(N2CCNCC2)cc1,Potency,[1],inactive
Nc1ccccc1C(=O)Oc1ccc2ccccc2c1,Potency,[2],"inconclusive [cytotoxic, partial curve]"
same,Potency,[1],"inconclusive [falling, partial curve, poor fit]"
COC(=O)N(C(=O)N1COC2(C(=O)OC)Cc3cc(Cl)ccc3C2=N1)c1ccc(OC(F)(F)F)cc1 (stereo unspecified),Potency,[2],"inconclusive [cytotoxic, single point]"
same,Potency,[4],"inconclusive [cytotoxic, partial curve, poor fit]"
COc1ccc(C=O)cc1OC,Potency,[1],inactive
